Laboratory results: PubChem BioAssay (NCI)
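The concentration for 50% growth inhibition is given as GI50.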 Some entries of the source have several records that differ or are many. This list holds those alone. There may be further records. The tests behind the records often covered other concentration ranges, not given here; some values may only mark the edge of a range.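 Definition used: TGI = concentration required for complete inhibition of growth.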

Tests used:
Test in all cases: NCI anticancer screen, dose series, 384-well format
HCT-116 colon = system: HCT-116 colon
SNB-75 CNS = system: SNB-75 CNS
MALME-3M melanoma = system: MALME-3M melanoma
MDA-MB-435 melanoma = system: MDA-MB-435 melanoma
SF-539 CNS = system: SF-539 CNS
SK-MEL-5 melanoma = system: SK-MEL-5 melanoma
HOP-92 NSCLC = system: HOP-92 NSCLC
SNB-19 CNS = system: SNB-19 CNS
A498 renal = system: A498 renal
M14 melanoma = system: M14 melanoma
SK-OV-3 ovarian = system: SK-OV-3 ovarian
HT29 colon = system: HT29 colon
NCI-H522 lung = system: NCI-H522 lung
MDA-MB-231 breast = system: MDA-MB-231 breast
OVCAR-8 ovarian = system: OVCAR-8 ovarian
KM12 colon = system: KM12 colon
HCC-2998 colon = system: HCC-2998 colon
T-47D breast = system: T-47D breast
MCF7 breast = system: MCF7 breast
NCI-H322M lung = system: NCI-H322M lung
786-0 renal = system: 786-0 renal
HL-60(TB) leukemia = system: HL-60(TB) leukemia
DU-145 prostate = system: DU-145 prostate
NCI-H23 lung = system: NCI-H23 lung
NCI/ADR-RES ovarian = system: NCI/ADR-RES ovarian
UACC-257 melanoma = system: UACC-257 melanoma
MDA-MB-468 breast = system: MDA-MB-468 breast
SF-268 CNS = system: SF-268 CNS
COLO 205 colon = system: COLO 205 colon
NCI-H460 NSCLC = system: NCI-H460 NSCLC
EKVX NSCLC = system: EKVX NSCLC
PC-3 prostate = system: PC-3 prostate
U251 glioblastoma = system: U251 glioblastoma
TK-10 renal = system: TK-10 renal
OVCAR-5 ovarian = system: OVCAR-5 ovarian
SN12C renal = system: SN12C renal
SW-620 colon = system: SW-620 colon
A549 NSCLC = system: A549 NSCLC
NCI-H226 lung = system: NCI-H226 lung
UACC-62 melanoma = system: UACC-62 melanoma
HCT-15 colon = system: HCT-15 colon
HOP-62 NSCLC = system: HOP-62 NSCLC
CAKI-1 renal = system: CAKI-1 renal
OVCAR-3 ovarian = system: OVCAR-3 ovarian
UO-31 renal = system: UO-31 renal
IGROV1 ovarian = system: IGROV1 ovarian
ACHN renal = system: ACHN renal
SF-295 CNS = system: SF-295 CNS
SK-MEL-28 melanoma = system: SK-MEL-28 melanoma
BT-549 breast = system: BT-549 breast

With `CC(=O)c1c(C)c2cnc(Nc3ccc(N4CCNCC4)cn3)nc2n(C2CCCC2)c1=O` the GI50 (HCT-116 colon) was 3.3 µM and > 100 µM, the TGI (HCT-116 colon) was 9.8 µM and > 100 µM and the GI50 (SNB-75 CNS) was 7.55 µM and > 100 µM. For the same molecule, the GI50 (MALME-3M melanoma) was 5.27 µM and > 100 µM, the GI50 (MDA-MB-435 melanoma) was 5.56 µM and > 100 µM and the GI50 (SF-539 CNS) was 9.62 µM and > 100 µM. For the same molecule, the GI50 (SK-MEL-5 melanoma) was 1.56 µM and > 100 µM, the TGI (SK-MEL-5 melanoma) was 7.55 µM and > 100 µM and the GI50 (HOP-92 NSCLC) was 8.02 µM and > 100 µM. The GI50 (SNB-19 CNS) was 7.23 µM and > 100 µM, the GI50 (A498 renal) was 6.72 µM and > 100 µM and the GI50 (M14 melanoma) was 5.16 µM and > 100 µM. For the same molecule, the GI50 (SK-OV-3 ovarian) was 8.03 µM and > 100 µM, the GI50 (HT29 colon) was 5.88 µM and > 100 µM and the GI50 (NCI-H522 lung) was 8.19 µM and > 100 µM. For the same molecule, the GI50 (MDA-MB-231 breast) was 7.69 µM and > 100 µM, the GI50 (OVCAR-8 ovarian) was 9.35 µM and > 100 µM and the TGI (KM12 colon) was 7.46 µM and > 100 µM. For the same molecule, the GI50 (HCC-2998 colon) was 5.1 µM and > 100 µM, the GI50 (T-47D breast) was 8.06 µM and > 100 µM and the GI50 (MCF7 breast) was 1.22 µM and > 100 µM. For the same molecule, the TGI (MCF7 breast) was 7.69 µM and > 100 µM, the GI50 (NCI-H322M lung) was 7.67 µM and > 100 µM and the GI50 (786-0 renal) was 3.3 µM and > 100 µM. The TGI (HL-60(TB) leukemia) was 5.12 µM and > 100 µM, the GI50 (DU-145 prostate) was 7.72 µM and > 100 µM and the GI50 (NCI-H23 lung) was 8.27 µM and > 100 µM. The GI50 (NCI/ADR-RES ovarian) was 9.96 µM and > 100 µM, the GI50 (UACC-257 melanoma) was 6.82 µM and > 100 µM and the GI50 (MDA-MB-468 breast) was 4.39 µM and > 100 µM. The GI50 (SF-268 CNS) was 6.58 µM and > 100 µM, the GI50 (COLO 205 colon) was 5.15 µM and > 100 µM and the GI50 (NCI-H460 NSCLC) was 2.3 µM and > 100 µM. The TGI (NCI-H460 NSCLC) was 9.66 µM and > 100 µM, the GI50 (EKVX NSCLC) was 8.49 µM and > 100 µM and the GI50 (PC-3 prostate) was 7.87 µM and > 100 µM. For the same molecule, the GI50 (U251 glioblastoma) was 6.03 µM and > 100 µM, the GI50 (TK-10 renal) was 2.23 µM and > 100 µM and the TGI (TK-10 renal) was 9.88 µM and > 100 µM. For the same molecule, the GI50 (OVCAR-5 ovarian) was 5.32 µM and > 100 µM, the GI50 (SN12C renal) was 6.81 µM and > 100 µM and the GI50 (SW-620 colon) was 644 nM and > 100 µM. For the same molecule, the TGI (SW-620 colon) was 8.83 µM and > 100 µM, the GI50 (A549 NSCLC) was 5.01 µM and > 100 µM and the GI50 (NCI-H226 lung) was 6.71 µM and > 100 µM. The GI50 (UACC-62 melanoma) was 5.4 µM and > 100 µM, the GI50 (HCT-15 colon) was 3.23 µM and > 100 µM and the TGI (HCT-15 colon) was 9.16 µM and > 100 µM. For the same molecule, the GI50 (HOP-62 NSCLC) was 7.12 µM and > 100 µM, the TGI (CAKI-1 renal) was 7.41 µM and > 100 µM and the GI50 (OVCAR-3 ovarian) was 9.38 µM and > 100 µM. For the same molecule, the GI50 (UO-31 renal) was 2.87 µM and > 100 µM, the TGI (UO-31 renal) was 9.9 µM and > 100 µM and the GI50 (IGROV1 ovarian) was 2.7 µM and > 100 µM. For the same molecule, the TGI (IGROV1 ovarian) was 9.41 µM and > 100 µM, the TGI (ACHN renal) was 8.69 µM and > 100 µM and the GI50 (SF-295 CNS) was 7.13 µM and > 100 µM. The GI50 (SK-MEL-28 melanoma) was 6.65 µM and > 100 µM and the GI50 (BT-549 breast) was 7.61 µM and > 100 µM.
